# Measured values from PubChem BioAssay AID624296 (National Center for Advancing Translational Sciences (NCATS), 2012).
# Screen size: about 350,000 compounds; about 9,900 (2.8%) were called active. This list was built around the results that the source calls inconclusive (neither active nor inactive); the mix of calls is not that of the screen. The call rests on the fitted dose curve; in most records, active means well fitted activation curve with a large enough effect; inconclusive means small, poorly fitted or top-dose-only effect; inactive means no such curve, though single readings can be large or run the other way. No potency is given beside an inconclusive call; the fits are too rough.
# Experiment: A quantitative high throughput screen for small molecules that induce DNA re-replication in MCF 10a normal breast cells. Further: nearly all actives have a fitted effect of over 50% in size. On activity, positive = re-replication: % of control where 0% means no effect.
# Settings: MCF 10A DNA re-replication, Hoechst nuclear intensity, 48 h; activity, positive = re-replication: at 46.1 µM (top of the series)
# Potency means the concentration at half of the fitted maximal effect; tags describe the fitted curve by direction and shape.
SMILES,Potency,"activity, positive = re-replication"
Cc1cnc(NC(=O)Cc2c[nH]c3ccccc23)s1,"inconclusive [activator, single point]",–
COc1cc(-c2ncc3ccccn23)cc(OC)c1OC,"inconclusive [activator, single point]",–
CC1(C)Cc2c(sc(NC(=O)c3ccc(C(=O)c4ccccc4)cc3)c2C#N)C(C)(C)N1,"inconclusive [activator, full curve]",–
COc1ccc(-c2noc(C)c2-c2ccc3ccccc3n2)c(O)c1,"inconclusive [activator, single point]",–
COc1ccc(-c2csc(NC(C)c3nc4cc(Cl)c(N5CCCCC5)cc4n3CCCO)n2)cc1 (configuration not stated),"inconclusive [activator, partial curve, poor fit]",–
C#CCOCCOCCOCCNc1nc(N2CCN(C(=O)CCCCCCCCCCNC(=O)[C@H](CCCCN)n3cc(CCCC(=O)O)nn3)CC2)nc(N2CCN(C(=O)CCCCCCCCCCNC(=O)[C@@H]([C@H](C)O)n3cc(C)nn3)CC2)n1,"inconclusive [activator, full curve, poor fit]",–
O=C1CCN(CCc2ccccc2)CCN1CCOc1ccccc1,"inconclusive [activator, full curve, poor fit]",–
COc1ccccc1NC(=O)c1ccc(NS(=O)(=O)c2ccc(F)c(Cl)c2)cc1,"inconclusive [activator, single point]",–
Cc1nn(-c2ccc(F)cc2)c2sc(C(=O)O)cc12,"inconclusive [activator, single point]",–
CC(=O)Oc1c(C)cc(Cl)cc1C(=O)Nc1ccc([N+](=O)[O-])cc1Cl,–,inactive: 16.8%
COCCNC(=O)c1c(N)n(/N=C/c2cccs2)c2nc3ccccc3nc12,"inconclusive [activator, full curve, poor fit]",–
NCC(=O)NCC(=O)OCc1ccccc1,active: 1.03 µM,–
C=CC(C)N1C(=O)S/C(=C\c2ccc(N3CCOCC3)cc2C)C1=O (configuration not stated),"inconclusive [activator, single point]",–
Cc1c(C(=O)O/N=C(\N)c2ccccn2)cccc1[N+](=O)[O-],"inconclusive [activator, partial curve, poor fit]",–
CCOC(=O)c1c(N/N=C/c2cccnc2)n[nH]c1C,"inconclusive [activator, full curve]",–
CCc1nnc(NC(=O)c2cc(-c3ccccn3)nc3ccc(Br)cc23)s1,–,inactive: -34.5%
COCCCn1c(=S)[nH]c2ccc(N3CCOCC3)cc2c1=O,"inconclusive [activator, partial curve, poor fit]",–
Cc1nn(Cc2ccc(Cl)cc2)c(C)c1NC(=O)c1cc(-c2ccc3c(c2)OCO3)on1,active: 4.61 µM,–
O=C(Nc1ccccc1)c1cccnc1N1CCOCC1,–,inactive: 3.88%
Cc1cccc(CN2CCC(Oc3ccc(C(=O)N4CCCC4)cc3)CC2)n1,–,inactive: -0.908%
Cc1csc(NC(=S)NC(=O)c2ccccc2)n1,–,inactive: -6.98%

SMILES,Potency,"activity, positive = re-replication"
CC(=O)Nc1ccc(NC(=O)c2nc(S(=O)(=O)Cc3ccccc3)ncc2Cl)cc1,"inconclusive [activator, single point]",–
Cc1ccc(C(=O)N/C(=C\c2ccc(-c3cccc([N+](=O)[O-])c3)o2)C(=O)NCCCN2CCOCC2)cc1,–,inactive: 3.67%
Cc1cc(-c2ccccc2)nc(SCC(=O)N2CCCC2)n1,"inconclusive [activator, single point]",–
O=C(COc1cc(F)ccc1[N+](=O)[O-])Nc1ccc(N2CCCCC2)cc1,"inconclusive [activator, partial curve, poor fit]",–
COc1ccc(C(=O)Nc2ccc(S(=O)(=O)Nc3nccnc3OC)cc2)cc1,–,inactive: 6.89%
CC1CCN(CCCCOc2ccc(Br)cc2)CC1,"inconclusive [activator, partial curve, poor fit]",–
CCc1nc(SCc2ccccc2C)n[nH]1,–,inactive: -0.0658%
CCc1ccc(C(=O)NNc2ccccc2F)cc1,"inconclusive [activator, partial curve, poor fit]",–
O=C(NCCc1c[nH]c2ccccc12)C1CCC(Cn2c(=S)[nH]c3ccccc3c2=O)CC1 (configuration not stated),"inconclusive [activator, full curve, poor fit]",–
O=C(CN(Cc1ccccc1Cl)C(=O)c1csnn1)NCc1ccccc1,–,inactive: -13.8%
COc1ccccc1NC(=O)CN(c1ccc(C)cc1)S(=O)(=O)c1c(C)n[nH]c1C,"inconclusive [activator, partial curve, poor fit]",–
C=CCn1c(=O)[nH]c(=O)c2c(N)c(C(=O)c3ccc(OC)cc3)sc21,–,inactive: 5.74%
CC(=O)c1cccc(NC(=O)Cn2nc(-c3ccccc3Cl)ccc2=O)c1,–,inactive: -0.267%
Cc1c(C(=O)NCc2ccccc2CN2CCCC2)oc2ccc(F)cc12,"inconclusive [activator, single point]",–
CC(C)CN(C(=O)C1CCCO1)c1c(N)n(CC(C)C)c(=O)[nH]c1=O (configuration not stated),–,inactive: -2.77%
Cc1ccc(CC(=O)NCC(c2ccco2)N(C)C)cc1C (configuration not stated),"inconclusive [activator, partial curve, poor fit]",–
COc1cc([N+](=O)[O-])ccc1NC(=S)N1CCN(c2ccccn2)CC1,"inconclusive [activator, partial curve, poor fit]",–
COc1ccc(C2CN=NC23CCc2ccccc2C3=O)cc1 (configuration not stated),"inconclusive [activator, full curve]",–
CCN1CCN(C(=O)CN(C)S(=O)(=O)c2cc(C)ccc2OC)CC1,"inconclusive [activator, single point]",–
O=C(Cc1ccccc1)Nc1cccc(NC(=O)c2ccccc2)c1,"inconclusive [activator, partial curve, poor fit]",–
O=C1CSC(c2cccc([N+](=O)[O-])c2)N1c1ccccc1 (configuration not stated),"inconclusive [activator, partial curve, poor fit]",–
